{"source": "the supplement of paper PMC10441789", "note": "The other results are listed elsewhere or left out. Antibody binding of pooled human sera (four to six donors per pool; dilution not stated) to peptides of the Trypanosoma cruzi antigen TSSA on microarrays. Quantile-normalised fluorescence in arbitrary units, mean of duplicate arrays; higher = more binding. No active / inactive call. The uninfected pools are read here as the healthy donors of the same country. The strongest signals lie near the top of the scale (about 60,000).", "data": [{"system": "pooled sera of uninfected people, Brazil", "test": "antibody binding signal (normalised fluorescence) (arbitrary fluorescence units); higher = stronger serum antibody binding to peptide", "method": "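Microarray of overlapping 15-residue peptides of the four Trypanosoma cruzi TSSA reference variants and 8- to 13-residue peptides of TSSAII 24-62, probed with one serum pool per country.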", "values": [{"sequence": "TANGGSTSS", "antibody binding signal": 611}, {"sequence": "PPSGTENK", "antibody binding signal": 377}, {"sequence": "KKTAAGGTPSPSGAS", "antibody binding signal": 357}, {"sequence": "KTAAGEAPSPSGASS", "antibody binding signal": 222}, {"sequence": "GTENKPATGEAPSQP", "antibody binding signal": 459}, {"sequence": "NGGSTSSTPPSG", "antibody binding signal": 400}, {"sequence": "GTENKPATGEAP", "antibody binding signal": 411}, {"sequence": "TSSTPPSGT", "antibody binding signal": 209}, {"sequence": "GEAPSQPGAS", "antibody binding signal": 218}, {"sequence": "GEAPSQPG", "antibody binding signal": 413}, {"sequence": "SQPGASSGE", "antibody binding signal": 168}, {"sequence": "AAAGEAPSPSGASSG", "antibody binding signal": 180}, {"sequence": "SGTENKPATG", "antibody binding signal": 438}, {"sequence": "ASSGEAEAS", "antibody binding signal": 113}, {"sequence": "STPPSGTE", "antibody binding signal": 93.3}, {"sequence": "STSSTPPSGT", "antibody binding signal": 183}, {"sequence": "PGASSGEAEA", "antibody binding signal": 166}, {"sequence": "TPPSGTENKPA", "antibody binding signal": 621}, {"sequence": "NKPATGEAP", "antibody binding signal": 319}, {"sequence": "TAAGGTPSPSGASSG", "antibody binding signal": 328}, {"sequence": "GTDKKTAAGGTPSPS", "antibody binding signal": 661}, {"sequence": "SSGEAEASSNKNDGS", "antibody binding signal": 150}, {"sequence": "TDKKTAAGEAPSPSG", "antibody binding signal": 184}, {"sequence": "AAGGTPSPSGASSGE", "antibody binding signal": 142}, {"sequence": "PPSGTENKPATGE", "antibody binding signal": 486}, {"sequence": "SGTENKPAT", "antibody binding signal": 289}, {"sequence": "SQPGASSG", "antibody binding signal": 328}, {"sequence": "GSTSSTPPSGT", "antibody binding signal": 249}, {"sequence": "TENKPATGEAP", "antibody binding signal": 260}, {"sequence": "GGSTSSTPP", "antibody binding signal": 163}, {"sequence": "GTENKPATGE", "antibody binding signal": 227}, {"sequence": "NGGSTSSTPP", "antibody binding signal": 208}, {"sequence": "TENKPATGEAPSQ", "antibody binding signal": 295}, {"sequence": "NGGSTISTPPSGTDK", "antibody binding signal": 637}, {"sequence": "TGEAPSQP", "antibody binding signal": 134}, {"sequence": "PSGASSGEAEASSNK", "antibody binding signal": 183}, {"sequence": "SGTENKPATGEA", "antibody binding signal": 268}, {"sequence": "TDKKTAAGGTPSPSG", "antibody binding signal": 1370}, {"sequence": "GEAPSQPGASSGE", "antibody binding signal": 114}, {"sequence": "KKAAAGEAPSPSGAS", "antibody binding signal": 80.8}]}]}
